Reference: publication PMC10668032
The list shows a part of the results. At the low end of the ranking, values are background and their order means little.

target: SIX1 homeodomain (reference allele) (UniProt Q15475); assay: universal protein binding microarray; details: Universal all-10-mer PBM (8x60K, AMADID 030236), 300 nM GST-tagged protein, Alexa Fluor 488 anti-GST; buffer, salt, pH and temperature not stated; high values mean tight binding; most listed sequences are background and not binding sites; double strand, one strand shown

Row | Sequence | binding signal [E-score]
1 | AGAATTGC | -0.186
2 | ATCCGACG | 0.241
3 | GATAGGGC | 0.285
4 | CGGCTATA | 0.00564
5 | CCCGCAAA | -0.115
6 | CCATATGG | 0.131
7 | ATGTGCGA | -0.1
8 | GCCTCCGC | -0.0793
9 | TATCGATA | 0.342
10 | AGGCAACT | -0.155
11 | GGAAGGAA | -0.088
12 | ACCAGGAT | 0.345
13 | AGCTAGCA | -0.0165
14 | ACAGTCCG | -0.114
15 | CTAGTACA | 0.0582
16 | GACACGGC | 0.0812
17 | TATTTTGA | -0.141
18 | CACTCACC | -0.031
19 | AGCAAGGG | 0.0682
20 | CGGGTTCA | 0.149
21 | ATCGGACA | 0.237
22 | GACGTAAA | -0.162
23 | ATCCTACA | 0.288
24 | ACGGAACC | -0.192
25 | AATGGATG | -0.134

Row | Sequence | binding signal [E-score]
26 | AAGCTGTA | 0.0658
27 | CGCTCTGA | -0.122
28 | GAGACATA | 0.132
29 | CATCACAA | 0.0587
30 | CGCATCGA | 0.208
31 | CTCAGACC | -0.157
32 | AGGTGTGA | 0.204
33 | TACAGGGA | 0.00799
34 | CAACGTCA | -0.24
35 | ATCGTGGC | 0.076
36 | GATTTACC | -0.0612
37 | ATGTGAGC | -0.00751
38 | CTACACGC | 0.0747
39 | CGTAGTCC | -0.204
40 | ATCTATCG | 0.23
41 | GGATCCAA | 0.41
42 | ACGCATCT | 0.169
43 | AGCCACCG | -0.0209
44 | CTATCACA | 0.311
45 | GGCCGCTA | -0.127
46 | ACATCAGG | -0.113
47 | ATCAAACC | 0.261
48 | AATACAAG | 0.0905
49 | CACTAGAA | -0.128
50 | GTCCTTGA | -0.128

Row | Sequence | binding signal [E-score]
51 | CAGCTAGA | -0.124
52 | ATGAGAAG | 0.176
53 | AAGCTTCA | -0.252
54 | GAAGGCCA | -0.274
55 | CGCATCTC | 0.154
56 | GGTGAAAA | -0.151
57 | TCCTTCCA | -0.00863
58 | CACCGAAA | 0.0578
59 | CCCTGAGG | -0.084
60 | TCACGTCA | 0.0163
61 | GTCCTCAA | -0.332
62 | ACAAGATC | 0.207
63 | CTCCAACC | -0.0768
64 | AGGGCAAC | -0.121
65 | CAGCAATG | -0.226
66 | ATCCTATG | 0.152
67 | GAGACGGC | 0.0871
68 | CAGTTATA | 0.0531
69 | AGGCACAG | -0.152
70 | CCATCCTC | 0.053
71 | GTGTGGCA | -0.115
72 | ATAAAGCA | -0.063
73 | CTGTTTAC | -0.263
74 | AGACGCGG | 0.0324
75 | TATTAGCA | 0.145

Row | Sequence | binding signal [E-score]
76 | AGTGTTAG | 0.0653
77 | AAAATAAG | -0.0846
78 | AGTGCTTA | -0.261
79 | AAAAACTT | -0.341
80 | ATACGGGC | 0.278
81 | ATCCCCGG | 0.307
82 | ATCGGAAT | 0.172
83 | ATGTTTCA | -0.0604
84 | AATCATTC | -0.0896
85 | AGCTGTGA | 0.00675
86 | AGTATGGC | -0.0287
87 | CTCGACTC | -0.0806
88 | ATAGGATA | 0.415
89 | AAAACTAG | -0.0426
90 | ACCATAGG | 0.0361
91 | TTCCGAAA | -0.162
92 | CACGTGAG | -0.163
93 | CTGCCGGA | -0.0267
94 | ATTTCAAA | 0.000155
95 | TACTTCCA | 0.0222
96 | AAATGTTC | -0.17
97 | ACTCTAGC | -0.027
98 | CTTACTAC | -0.0528
99 | ATGTTTAC | -0.0948
100 | ATCCATAA | 0.254

Row | Sequence | binding signal [E-score]
101 | TGGTTGAA | -0.147
102 | CTGTCCTC | 0.0352
103 | CTTGGTAA | -0.0803
104 | AACCTCGC | -0.0568
105 | GGGTATTA | 0.393
106 | CGGGTGCA | 0.013
107 | ATTTCGGA | -0.0252
108 | ACTCCAAA | -0.199
109 | GTCCGACA | 0.00526
110 | GACAGACC | -0.181
111 | CGAATGAC | 0.0709
112 | CTCGCTCC | 0.011
113 | ATCCCGAT | 0.378
114 | ATGTATCA | 0.448
115 | ATTAACGA | 0.0502
116 | CAGTAATG | -0.00453
117 | TCCCCACA | -0.129
118 | GTCTCTAA | -0.128
119 | ACTTTATG | -0.0542
120 | AATTCCGG | -0.0499
121 | CTCTCTGA | 0.0106
122 | ACCGGGCG | 0.00777
123 | TGGCATAA | 0.177
124 | CATTATAG | -0.0872
125 | CGCGGAGC | -0.176

Row | Sequence | binding signal [E-score]
126 | CATTCTCG | -0.176
127 | CCAATCCG | 0.224
128 | AGGCATGC | -0.235
129 | GGTGAAAC | 0.0962
130 | CCCCTAAG | 0.0172
131 | CCCAGAAG | -0.0619
132 | GCGATCAC | 0.354
133 | GAATGCCC | 0.00274
134 | ACCCCAGA | 0.189
135 | TCGATCCA | 0.152
136 | ATGACTAA | -0.112
137 | AGTAAAAT | -0.039
138 | GTACACTA | 0.114
139 | ACCTTCAG | -0.0385
140 | TCCACGGA | 0.0425
141 | CAACCTGA | -0.0449
142 | GTGGAAGA | -0.0122
143 | ACATTATC | 0.165
144 | GCGGCCCC | -0.155
145 | GCTGGGCA | -0.0906
146 | ATTTTGGG | -0.0913
147 | TAGGCACA | -0.109
148 | ATACTGAC | 0.199
149 | AATTCCGC | -0.0557
150 | ACCGCCTC | -0.0646

Row | Sequence | binding signal [E-score]
151 | GAGCAGGC | -0.156
152 | GACTCACA | -0.289
153 | GCCTCCCC | -0.148
154 | AACGTACA | -0.147
155 | CAATGCTG | -0.073
156 | CCCTTGTC | -0.0401
157 | GGCGCCCC | -0.217
158 | AGGTTTAT | 0.199
159 | AAGGCTCT | -0.0956
160 | ATTACTTG | -0.0983
161 | AGTGAATG | 0.0439
162 | AGAGTCCC | -0.182
163 | CATAAGAG | -0.0308
164 | AATGAAAG | -0.27
165 | CTCCGGCC | -0.298
166 | ATACGGCA | 0.339
167 | GTTCAAGA | -0.136
168 | CCTAACTA | -0.0382
169 | ATCTCATC | 0.311
170 | GTCCAGAC | -0.205
171 | ATACTAAA | -0.031
172 | AGTTCCTG | -0.362
